According to the RNAGym collection of RNA variant scans (doi:10.1093/nar/gkz1192):
Read counts are not given, so values of variants with three or more changes are uncertain.

B1: CPEB3 Ribozyme (parent)
chain: UAACAGGGGGCCACAGCAGAAGCGUUCACGUCGCAGCCCCUGUCAGAUUCUGGUGAAUCUGCGAAUUCUGCUGUAUAUCUC

Variants of: B1
Assay: self-cleavage, relative activity (ratio to wild type); higher = more cleavage; in vitro, sequencing
Summary of the method: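 Relative activity was defined as the cleaved/total read fraction for a variant divided by the same fraction for the unmutated ribozyme. CPEB3 self-cleaving ribozyme libraries were made by rounds of error-prone PCR, barcoded, and transcribed in vitro with T7 RNA polymerase for 5 hours at 37°C, and cleavage ran through transcription plus a 15 min DNase I step before EDTA. Illumina sequencing of template-switched reverse transcripts gave the reads, and DNA sequencing mapped the barcodes. Averages come from three batches, using variants with at least 5 reads.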
For G7A A13U A15G U25C A57G U74A U78C, the self-cleavage was 0.29.
In the case of G7A A20G A56U U58G C79U, the self-cleavage is reported as 0.09.
Variant G6C A45G A57G C62U A65G has a self-cleavage of 0.15.
G6A U41A A75G showed a self-cleavage of 0.2.
G6U U60C U80C gave a self-cleavage of 0.22.
G6C A13U C44U U60A G70A U72C A77U showed a self-cleavage of 0.03.
Work on G6U G7U A15U A18G A20G G24C G33C yielded a self-cleavage of 0.29.
Work on G6A U43C A64G U78C yielded a self-cleavage of 0.15.
For G7A A28C U76C, the self-cleavage was 0.08.
With G6U A18G A35U U48C A64G A75G the self-cleavage was 0.05.
G6U U43C A45G A64G showed a self-cleavage of 0.04.
Variant G6C A15G U26C C40A A57G has a self-cleavage of 0.
Variant G7A A18U U25C U58C has a self-cleavage of 0.16.
G6C A57C A65U gave a self-cleavage of 0.28.
For G7A A21U G33A A35G U80C, the self-cleavage was 0.19.
G7A A21G U66C gave a self-cleavage of 0.22.
In the case of G6C G22A U31A U60C U78G, the self-cleavage is reported as 0.04.
For G6C G7A A15G A57G U67C A77U, the self-cleavage was 0.16.
With G6A U43C U67C the self-cleavage was 0.18.
G7A A15U C23U U26C C38U showed a self-cleavage of 0.05.
For G6U G16C U51A U69A U76A, the self-cleavage was 0.08.
G7A A13U A47G showed a self-cleavage of 0.21.
Work on G6C U26A U31C A35G A56U yielded a self-cleavage of 0.09.
For G6A U58C U80C, the self-cleavage was 0.33.
With G7A A20G U48C U78C the self-cleavage was 0.23.
For G6U C37U A45G, the self-cleavage was 0.33.
Variant G7A A18G U31A G42C G63A C68A U69A has a self-cleavage of 0.03.
In the case of G6U U60A U72C, the self-cleavage is reported as 0.22.
Variant G6U G9A U51A A57G A64U A77G has a self-cleavage of 0.05.
In the case of G6U A13U A21G, the self-cleavage is reported as 0.06.
G6C G9U A64U U80C gave a self-cleavage of 0.36.
Variant G6U A20G C29U U41C C68A has a self-cleavage of 0.25.
In the case of G6C A15G C40U, the self-cleavage is reported as 0.54.
G6U U26C C29U A45G A47C U48C showed a self-cleavage of 0.16.
Work on G6C G8U A20G A35U U43C U58C U66A yielded a self-cleavage of 0.25.
With G7A A20G C50G U54C U58C U67C U69A the self-cleavage was 0.16.
Variant G7A A15C U25C A35U A45U A57C U69A has a self-cleavage of 0.04.
In the case of G7A A18G U26C U78C, the self-cleavage is reported as 0.05.
Variant G6A U51A U54G U80A has a self-cleavage of 0.06.
In the case of G7A A21G A47G U66C, the self-cleavage is reported as 0.04.
Variant G6U A20G U26A A45C A56G U69A U72G has a self-cleavage of 0.05.
G6U A18G U66C showed a self-cleavage of 0.34.
For G6C U41C A57G C59G A64G, the self-cleavage was 0.05.
G6C U43C A56G showed a self-cleavage of 0.18.
G6A U58C G63U U72C A75U U80C gave a self-cleavage of 0.06.
With G6U A35G U54A U80C the self-cleavage was 0.63.
With G6C G9U U25A U31C C40U U66C the self-cleavage was 0.04.
In the case of G6U A20G G30A U31C U72G, the self-cleavage is reported as 0.05.
Variant G6U G7A A57G U67C A77U has a self-cleavage of 0.18.
Work on G6C U26C U67C U69C U80C yielded a self-cleavage of 0.26.
With G6U A18U A28G the self-cleavage was 0.35.
Variant G6A U31C U41A U80C has a self-cleavage of 0.05.
Variant G6U C32U A64U U78C has a self-cleavage of 0.06.
In the case of G7A A21U C32U U72C, the self-cleavage is reported as 0.12.
G6U A15G A18U A28C U80C showed a self-cleavage of 0.07.
For G6U A18C U41A A65G A77G, the self-cleavage was 0.16.
For G6C A18G A56U, the self-cleavage was 0.08.
For G6U G16C U72A U74C, the self-cleavage was 0.66.
Variant G6A U43A A45G has a self-cleavage of 0.18.
For G7A A18G A20G C29A U31C A35U U41A, the self-cleavage was 0.04.
With G6C A20G A35G U41C U66C U72A the self-cleavage was 0.17.
G7A A21G A35G U58A G63U U66C showed a self-cleavage of 0.12.
In the case of G6A U31C A45U A47G U51A, the self-cleavage is reported as 0.13.
Variant G7A A15G A45G G55A A57G A75U has a self-cleavage of 0.03.
G6C A20C A21G U25C A45G A56G U78C showed a self-cleavage of 0.42.
Work on G7A A21G A28G G33U A45C U54C yielded a self-cleavage of 0.04.
In the case of G6A U51C C59G C62U, the self-cleavage is reported as 0.07.
In the case of G7A A18U U51A U69C, the self-cleavage is reported as 0.06.
Work on G6U U25C A35G U48C U54A A56U G63C yielded a self-cleavage of 0.07.
In the case of G7A A13C G30A C39A U67C U74A, the self-cleavage is reported as 0.07.
G6U U31A U43G U60A A65U U67C U72C gave a self-cleavage of 0.06.
For G6U A47G G63U C71A, the self-cleavage was 0.08.
For G7A A13U U48C A56C U60A, the self-cleavage was 0.04.
For G6U A18U U66C, the self-cleavage was 0.31.
G6A U60C U72C gave a self-cleavage of 0.18.
G6U G10A A20G A64G gave a self-cleavage of 0.06.
Variant G6A U51A C62U U67C U80C has a self-cleavage of 0.05.
G6C G22U U51A showed a self-cleavage of 0.38.
In the case of G7A A20G U51A A64U U78A, the self-cleavage is reported as 0.22.
For G7A A18G U49A U54C U60A, the self-cleavage was 0.05.
Variant G7A A13G A18U A45G U48A U58C has a self-cleavage of 0.06.
In the case of G6U U43C U49C A75U, the self-cleavage is reported as 0.08.
With G6C A20U U26C A56G the self-cleavage was 0.04.
Work on G6U U41A A65G yielded a self-cleavage of 0.23.
Variant G6C U31A U41G U67C has a self-cleavage of 0.2.
With G6U U25C U60A the self-cleavage was 0.17.
In the case of G6C A18G G70A, the self-cleavage is reported as 0.09.
G6U U25C U69A gave a self-cleavage of 0.19.
G7A A18U A28G C40U U41G A57G gave a self-cleavage of 0.04.
With G6U A21G C40U the self-cleavage was 0.07.
With G6U A64G U67A U72C the self-cleavage was 0.08.
Variant G6U U31A A64G has a self-cleavage of 0.14.
Work on G6U A18G A35G A45U U60C U80C yielded a self-cleavage of 0.08.
G7A A20C A21G A28G G33C U43C A56U showed a self-cleavage of 0.17.
With G7A A18G U49C A64G U67C the self-cleavage was 0.
Work on G6A U54A G55U U66C yielded a self-cleavage of 0.16.
With G6U A21G U25C U26C U72C the self-cleavage was 0.09.
Work on G6A U49C U80A yielded a self-cleavage of 0.27.
For G6C G7U A15G C17U C71G, the self-cleavage was 0.04.
In the case of G6C U26C A64G, the self-cleavage is reported as 0.07.
Work on G6U A18U C62A U78C U80C yielded a self-cleavage of 0.15.
G7A A15C A20G A21G C32U G46U U76A showed a self-cleavage of 0.06.
With G6U U26C U43C U51C A65G the self-cleavage was 0.04.
In the case of G6A U43C U54C, the self-cleavage is reported as 0.05.
With G7A A13G G63A A64C U67C the self-cleavage was 0.11.
G6A U43A U80C gave a self-cleavage of 0.13.
With G6A U41C U54C A64U the self-cleavage was 0.11.
In the case of G6U A21G U26C, the self-cleavage is reported as 0.2.
Work on G6A U41A U58A C62G U67C U72A yielded a self-cleavage of 0.14.
Variant G6U A56G A65G A75G A77U has a self-cleavage of 0.08.
With G6U A18G A35C U41C U60A the self-cleavage was 0.33.
With G6U G33U A47G A57G C62G the self-cleavage was 0.06.
G6U A21G G24A gave a self-cleavage of 0.29.
Work on G6U U43C A57G G73C yielded a self-cleavage of 0.34.
For G6U A28G G52U A57G A65G, the self-cleavage was 0.04.
Variant G6U U54C A57U U60C U69C has a self-cleavage of 0.12.
Work on G6U C39A U51A C62A A65G yielded a self-cleavage of 0.05.
With G6U C14U A47G U60C U78G the self-cleavage was 0.09.
G6C C68A U74C gave a self-cleavage of 0.05.
For G7A A13G U43C U69A, the self-cleavage was 0.12.
In the case of G7A A20G A45U U49A, the self-cleavage is reported as 0.06.
In the case of G6U U43C G52C U54A A56G U60A A75G, the self-cleavage is reported as 0.
With G6U A15U U41A the self-cleavage was 0.3.
With G6U A35C A65G U78C the self-cleavage was 0.06.
G6U C17U A20G U25C U31C A47G gave a self-cleavage of 0.22.
G7A A13U U25C A64G gave a self-cleavage of 0.05.
For G6U A45G A47G U66C, the self-cleavage was 0.09.
In the case of G6U A15G A18U U25C A47G, the self-cleavage is reported as 0.04.
For G6A U51A A64U A65U U69C, the self-cleavage was 0.22.
G6A U51G U72A gave a self-cleavage of 0.
In the case of G6U A15U C62U U72C, the self-cleavage is reported as 0.05.
In the case of G6A U49C A56U A64G U69C U72C U80C, the self-cleavage is reported as 0.11.
With G6U U25C A45U G46U A65G the self-cleavage was 0.05.
In the case of G6U U74C A75G, the self-cleavage is reported as 0.35.
For G6U A13U C23G U54C, the self-cleavage was 0.09.
For G6U C11A A15U G30A U51C A56G A77U, the self-cleavage was 0.03.
With G6U U58C U78C the self-cleavage was 0.16.
In the case of G6U A28G A45G A56C U58A U69C G73A, the self-cleavage is reported as 0.02.
G6U A18G A28G A57C U78G showed a self-cleavage of 0.08.
With G7A A13G A15G U41A A57G the self-cleavage was 0.19.
With G6U A20G A56U U69A G70A G73A the self-cleavage was 0.
G6U U25C U41A A56G A57G gave a self-cleavage of 0.09.
Work on G6U A15G U54C A57G U58A A65G yielded a self-cleavage of 0.7.
With G6C A28G U31A C37A the self-cleavage was 0.07.
With G6A U66C U69A G73A the self-cleavage was 0.12.
G6U A20G A21U A28G C39U C62U showed a self-cleavage of 0.06.
G6A U72A U78C gave a self-cleavage of 0.35.
In the case of G6A U67C U76C, the self-cleavage is reported as 0.17.
G6A U69G A77G gave a self-cleavage of 0.08.
For G6C A28G U31A U41G U67C U80C, the self-cleavage was 0.06.
In the case of G7A A21G A35G U41C U43C U66A U80C, the self-cleavage is reported as 0.1.
Work on G6C U48C U60C U78C yielded a self-cleavage of 0.06.
G7A A13U U31G gave a self-cleavage of 0.22.
Work on G7A A28G A56U U67C U76C yielded a self-cleavage of 0.08.
With G7A A18U A35G U67C G70A U74G the self-cleavage was 0.04.
G7A A15C U51A G55A A57G A64G showed a self-cleavage of 0.13.
In the case of G6U A21U U43C G55A U78A, the self-cleavage is reported as 0.07.
G6U A18C U51A G52U showed a self-cleavage of 0.23.
Variant G6U A21G C29G A56U has a self-cleavage of 0.14.
In the case of G6U U43A U74A, the self-cleavage is reported as 0.46.
In the case of G6U U43A U74C, the self-cleavage is reported as 0.49.
G6U A21G C34G gave a self-cleavage of 0.4.
For G6U U43C A47G G61U U66C U78A, the self-cleavage was 0.03.
G7A A20G G36U U41A A45G A47G U69C gave a self-cleavage of 0.05.
For G6U U31A A45U U54C U69A U78C, the self-cleavage was 0.04.
Work on G6U A21G A35G A45U A64U U66C yielded a self-cleavage of 0.19.
G6U C23U U43A gave a self-cleavage of 0.24.
